From PubChem BioAssay AID463173 (ICCB-Longwood Screening Facility, Harvard Medical School, 2010)
Out of some 52,000 compounds screened, about 4,300 (8.3%) were called active. Rule as the data show it: active = survival mostly below about 52% (no sharp cut-off); inactive = mostly above about 56%. The list shows a part of the results.

Test system: DeltatarO mutant
Test: growth inhibition of S. aureus wild type versus tarO mutant, primary screen, teichoic acid synthesis inhibitors, RN4220, OD600 (AID 463173)
Conditions: OD600, 18 h, hits give low values, screened at 18.75 µg/mL (by protocol)

Row | Compound | survival
1 | Cc1ccc(NC(=O)C(CC(C)C)N2Cc3ccccc3C2=O)cc1F (configuration not stated) | active: -5%
2 | CNS(=O)(=O)c1cn(CC(=O)N2CCN(c3ccc(C(C)=O)cc3)CC2)cc1S(=O)(=O)NC | active: 37%
3 | CCCCC12CN3CC(C)(CN(C1)C3c1c[nH]c3ccccc13)C2=O (configuration not stated) | inactive: 76%
4 | CCCCC(CC)CNC(=O)Cc1ccc(-n2c(=O)[nH]c3ccccc3c2=O)cc1 (configuration not stated) | inactive: 85%
5 | Cc1cccc(CSc2nc3c([nH]c4ccccc43)c(=O)n2C)c1 | inactive: 92%
6 | COc1cc(OC)c(OC)cc1CNCc1ccco1 | inactive: 114%
7 | CC(=O)N1c2ccc(S(=O)(=O)Nc3ccc(C)c(Cl)c3)cc2CC1C (configuration not stated) | inactive: 86%
8 | COc1ccc(N2CCN(S(=O)(=O)c3ccc(-c4coc(C)n4)cc3)CC2)cc1 | inactive: 101%
9 | C/C(CC(O)c1ccc2ccccc2n1)=N/O (configuration not stated) | inactive: 54%
10 | CCOc1ccc(CC(=O)Nc2c(C(=O)c3ccccc3)oc3ccc(Cl)cc23)cc1OCC | inactive: 48%
11 | CC(C)CCNc1nc(Nc2ccccc2)c2cnn(C)c2n1 | inactive: 81%
12 | O=C(Cc1ccc(Cl)cc1)NCCc1csc2nc(-c3ccccc3F)nn12 | inactive: 84%
13 | Cc1cc(F)ccc1Nc1nc2ccc(Cl)cc2n2cnnc12 | inactive: 90%
14 | CCOC(=O)c1ccc(-n2c(CCC(=O)O)ccc2-c2ccccc2)cc1O | active: 43%
15 | Cc1nnc(NC(=O)CSc2nccn2Cc2ccccc2)s1 | inactive: 74%
16 | CSCCC(NS(=O)(=O)c1ccc2c(c1)oc(=O)n2C)C(=O)NCc1ccc(Cl)cc1 (configuration not stated) | inactive: 92%
17 | CCCn1c(N2CCN(CC(=O)NCc3cccs3)CC2)nc2ccccc21 | inactive: 99%
18 | Cc1ccc(C)c(NC(=O)c2nc(S(=O)(=O)Cc3ccc(F)cc3)ncc2Cl)c1 | inactive: 99%
19 | CCc1ccccc1S(=O)(=O)Cc1ccc(C(=O)NCCc2ccc(Cl)cc2)o1 | inactive: 76%

Row | Compound | survival
20 | O=C(Nc1cc(-c2cccc(Cl)c2)nn1-c1ccccc1)c1ccccc1F | inactive: 83%
21 | CCOC(=O)c1cccc(N(C(=O)Cn2nnc3ccccc32)C(C(=O)NCC2CCCO2)c2nc3ccccc3n2C)c1 (configuration not stated) | inactive: 66%
22 | CCS(=O)(=O)c1ncc(N(Cc2ccccc2)Cc2ccco2)c(C(=O)Nc2ccccc2C)n1 | active: 45%
23 | CNc1ccc(-c2nc(-c3ccncc3)no2)cc1[N+](=O)[O-] | inactive: 108%
24 | COC(=O)c1ccccc1NC(=O)CSc1nc2ccccc2nc1Cc1ccc(F)cc1 | inactive: 67%
25 | O=C(NC1CCCCC1)c1ccc2c(c1)N(Cc1cccc(Cl)c1)C(=O)c1ccccc1S2(=O)=O | inactive: 69%
26 | CC(CC(=O)Nc1ccc(F)cc1)S(=O)(=O)c1cc2c3c(c1)CCN3C(=O)CC2 (configuration not stated) | inactive: 71%
27 | CCOC(=O)C1=C(CN2c3ccccc3CC2C)NC(=O)NC1c1ccccc1 (configuration not stated) | inactive: 96%
28 | COc1ccc(N2CCN(C(=O)C(CC(C)C)NS(=O)(=O)c3ccc4nc(C)sc4c3)CC2)cc1 (configuration not stated) | inactive: 77%
29 | O=C(Cn1nnc2ccccc2c1=O)NC1CCCCC1 | inactive: 89%
30 | Cc1cccc(NC(=O)Cn2c(=O)n(CC3CCC(C(=O)NCCc4ccccc4)CC3)c(=O)c3ccccc32)c1 (configuration not stated) | inactive: 74%
31 | Fc1ccc(-c2cc(-c3ccc(F)cc3)c3c(n2)-c2cc(F)ccc2OC3)cc1 | inactive: 89%
32 | Fc1ccc(Nc2nc(-c3cccc(Cl)c3)c3c(n2)-c2ccccc2OC3)c(F)c1 | inactive: 95%
33 | CCOC(=O)c1c(NC(=O)c2cc(-c3cccc(Cl)c3)on2)sc(C)c1C | active: 56%
34 | CCc1ccc(NC(=O)CSc2nc(-c3ccc(C)cc3)nc3c2Cc2c(CO)cnc(C)c2O3)cc1 | inactive: 112%
35 | CCOc1ccc2nc(N3CCCC(C(=O)Nc4ccccc4CC)C3)sc2c1 (configuration not stated) | inactive: 95%
36 | c1ccc(Sc2ncnc3c2oc2ccccc23)cc1 | inactive: 60%
37 | Cc1ccccc1-c1nnc(C2CCC(c3ccccc3)CC2)o1 (configuration not stated) | inactive: 92%
38 | CC1Oc2ccccc2N(CC(=O)c2ccccc2)C1=O (configuration not stated) | inactive: 96%

Row | Compound | survival
39 | COc1ccc(CNC(=O)CCc2c(C)nc3cc(-c4ccc(OC)cc4OC)nn3c2C)cc1 | inactive: 121%
40 | CCOc1ccc(C(=O)Nc2ccc(OCc3cc(=O)n4cccc(C)c4n3)cc2)cc1 | inactive: 55%
41 | CC(=O)NCCNC(=O)CCCc1nnc2n(CC(C)C)c(=O)c3sccc3n12 | inactive: 96%
42 | COc1ccc(-c2cc(-c3nc(-c4cc(OC)c(OC)c(OC)c4)no3)[nH]n2)c(OC)c1 | inactive: 102%
43 | CCc1nnc2c3ccccc3nc(Nc3cc(C)cc(C)c3)n12 | active: 26%
44 | COc1ccc(S(=O)(=O)NCc2cccn2Cc2cc(C)ccc2C)cc1OC | inactive: 84%
45 | COc1cccc(NC(=O)Cn2c(=O)n(Cc3ccc(F)cc3)c(=O)c3sc4ccccc4c32)c1 | inactive: 73%
46 | CCc1ccc(-c2nc3cc(NC(=O)c4ccc(C)c(C)c4)ccc3o2)cc1 | inactive: 151%
47 | COc1ccc(S(=O)(=O)n2nc(-c3ccco3)nc2NCc2ccc(C(C)C)cc2)cc1 | inactive: 81%
48 | CCOc1ccc(NC(=O)c2nc(S(=O)(=O)Cc3ccccc3F)ncc2Cl)cc1 | active: 11%
49 | COc1cccc(C(=O)Nc2nnc(S(=O)(=O)N3CCCc4ccccc43)s2)c1 | active: 18%
50 | Cc1cccc(C)c1NC(=O)Cn1cc(C(=O)C2CC2)c2ccccc21 | inactive: 67%
51 | Cc1nn(CCC(=O)Nc2cccc(C#N)c2)c(C)c1S(=O)(=O)N1CCCCC1 | inactive: 88%
52 | COc1ccc(OC)c(S(=O)(=O)NCCS(=O)(=O)N2CCN(c3ccccc3F)CC2)c1 | inactive: 67%
53 | CCS(=O)(=O)NCCc1csc2nc(-c3ccc(OC)cc3)nn12 | inactive: 76%
54 | Cc1ccc(C)c(CN2C(=O)c3ccccc3S(=O)c3ccc(C(=O)N4CCCCC4)cc32)c1 (configuration not stated) | inactive: 83%
55 | O=C(CN1C(=O)COc2ccc(S(=O)(=O)N3CCCCCC3)cc21)N1CCN(c2ccc(Cl)cc2)CC1 | inactive: 85%
56 | COc1cc(NC(=O)Cc2noc3ccccc23)cc(OC)c1OC | inactive: 57%
57 | O=c1[nH]c(C2CCCN(S(=O)(=O)c3ccccc3)C2)nc2c1nnn2Cc1ccccc1Br (configuration not stated) | inactive: 88%
